# The supplement of paper PMC8728848
# The other results are listed elsewhere or left out.
# How the values were obtained:
# Experiment in all cases: glycan array binding signal (z-score within array); higher = stronger binding
# Settings in all cases: glycan notation: IUPAC condensed, linker removed
# [1] = biological target: Neu5Ac(a2-6)GlcNAc(b1-4)GlcNAc(b1-4)GlcNAc
# Procedure, shortened: (§1)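 Glycan array data came from 3228 arrays in the Consortium for Functional Glycomics database, and only arrays with an available protein sequence were kept. Glycan names were put into IUPAC-condensed notation, and columns mapping to the same glycan were averaged. The binding signal is a within-array Z-score, averaged across arrays of one protein sequence run at different concentrations or buffers and across linkers. A negative Z-score can be read as non-binding.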
# Neu5Ac(a2-8)Neu5Ac = biological target: Neu5Ac(a2-8)Neu5Ac
# Procedure, shortened: as §1
# [2] = biological target: Neu5Ac(a2-8)Neu5Ac(a2-3)Gal(b1-3)GalNAc(b1-4)[Neu5Ac(a2-3)]Gal(b1-4)Glc
# Procedure, shortened: as §1
# [3] = biological target: Neu5Ac(a2-8)Neu5Ac(a2-3)Gal(b1-3)GalNAc(b1-4)[Neu5Ac(a2-8)Neu5Ac(a2-3)]Gal(b1-4)Glc
# Procedure, shortened: as §1
# [4] = biological target: Neu5Ac(a2-8)Neu5Ac(a2-3)Gal(b1-4)Glc
# Procedure, shortened: as §1
# [5] = biological target: Neu5Ac(a2-8)Neu5Ac(a2-3)Gal(b1-4)GlcNAc
# Procedure, shortened: as §1
# [6] = biological target: Neu5Ac(a2-8)Neu5Ac(a2-3)[Gal(b1-3)GalNAc(b1-4)]Gal(b1-4)Glc
# Procedure, shortened: as §1
# [7] = biological target: Neu5Ac(a2-8)Neu5Ac(a2-3)[GalNAc(b1-4)]Gal(b1-4)Glc
# Procedure, shortened: as §1
# [8] = biological target: Neu5Ac(a2-8)Neu5Ac(a2-8)Neu5Ac
# Procedure, shortened: as §1
# [9] = biological target: Neu5Ac(a2-8)Neu5Ac(a2-8)Neu5Ac(a2-3)Gal(b1-4)Glc
# Procedure, shortened: as §1
# [10] = biological target: Neu5Ac(a2-8)Neu5Ac(a2-8)Neu5Ac(a2-3)[Gal(b1-3)GalNAc(b1-4)]Gal(b1-4)Glc
# Procedure, shortened: as §1
# [11] = biological target: Neu5Ac(a2-8)Neu5Ac(a2-8)Neu5Ac(a2-3)[GalNAc(b1-4)]Gal(b1-4)Glc
# Procedure, shortened: as §1
# [12] = biological target: Neu5Ac(a2-8)Neu5Ac(a2-8)Neu5Ac(a2-8)Neu5Ac(a2-3)[GalNAc(b1-4)]Gal(b1-4)Glc
# Procedure, shortened: as §1
# [13] = biological target: Neu5Ac(a2-8)Neu5Gc(a2-3)Gal(b1-4)GlcNAc
# Procedure, shortened: as §1
# [14] = biological target: Neu5Ac(b2-6)Gal(b1-4)GlcNAc
# Procedure, shortened: as §1
# Neu5Ac(b2-6)GalNAc = biological target: Neu5Ac(b2-6)GalNAc
# Procedure, shortened: as §1
# [15] = biological target: Neu5Ac9Ac(a2-3)Gal(b1-3)GlcNAc
# Procedure, shortened: as §1
# [16] = biological target: Neu5Ac9Ac(a2-3)Gal(b1-4)GlcNAc
# Procedure, shortened: as §1
# [17] = biological target: Neu5Ac9Ac(a2-6)Gal(b1-4)GlcNAc
# Procedure, shortened: as §1
# [18] = biological target: Neu5Gc(a2-3)Gal(b1-3)GlcNAc
# Procedure, shortened: as §1
# [19] = biological target: Neu5Gc(a2-3)Gal(b1-3)[Fuc(a1-4)]GlcNAc
# Procedure, shortened: as §1
# Neu5Gc(a2-3)Gal(b1-4)Glc = biological target: Neu5Gc(a2-3)Gal(b1-4)Glc
# Procedure, shortened: as §1
# [20] = biological target: Neu5Gc(a2-3)Gal(b1-4)GlcNAc
# Procedure, shortened: as §1
# [21] = biological target: Neu5Gc(a2-3)Gal(b1-4)GlcNAc(b1-3)Gal(b1-4)GlcNAc(b1-2)Man(a1-3)[Neu5Gc(a2-3)Gal(b1-4)GlcNAc(b1-3)Gal(b1-4)GlcNAc(b1-2)Man(a1-6)]Man(b1-4)GlcNAc(b1-4)GlcNAc
# Procedure, shortened: as §1
# [22] = biological target: Neu5Gc(a2-3)Gal(b1-4)[Fuc(a1-3)]GlcNAc
# Procedure, shortened: as §1
# [23] = biological target: Neu5Gc(a2-6)Gal(b1-4)GlcNAc
# Procedure, shortened: as §1
# Neu5Gc(a2-6)GalNAc = biological target: Neu5Gc(a2-6)GalNAc
# Procedure, shortened: as §1
# [24] = biological target: Neu5Gc(a2-8)Neu5Ac(a2-3)Gal(b1-4)GlcNAc
# Procedure, shortened: as §1
# [25] = biological target: Neu5Gc(a2-8)Neu5Gc(a2-3)Gal(b1-4)GlcNAc
# Procedure, shortened: as §1
# [26] = biological target: Neu5Gc(a2-8)Neu5Gc(a2-3)Gal(b1-4)GlcNAc(b1-3)Gal(b1-4)GlcNAc
# Procedure, shortened: as §1
# [27] = biological target: Neu5Gc(a2-8)Neu5Gc(a2-6)Gal(b1-4)GlcNAc
# Procedure, shortened: as §1
# [28] = biological target: Neu5Gc(b2-6)Gal(b1-4)GlcNAc
# Procedure, shortened: as §1
binder,measurement,setting,value
Cohesin-hMARCO (Homo sapiens) (protein) LDDLDAVRIKVDTVNAKPGDTVRIPVRFSGIPSKGIANCDFVYSYDPNVLEIIEIEPGDIIVDPNPDKSFDTAVYPDRKIIVFLFAEDSGTGAYAITKDGVFATIVAKVKEGAPNGLSVIKFVEVGGFANNDLVEQKTQFFDGGANVGDTTEPATPTTPVTTPTTTDDLDAASVRIVGSSNRGRAEVYYSGTWGTICDDEWQNSDAIVFCRMLGYSKGRALYKVGAGTGQIWLDNVQCRGTESTLWSCTKNSWGHHDCSHEEDAGVECSVHHHHHH,glycan array binding signal (z-score),[1],-0.396
same,glycan array binding signal (z-score),Neu5Ac(a2-8)Neu5Ac,-0.288
same,glycan array binding signal (z-score),[2],0.082
same,glycan array binding signal (z-score),[3],-0.482
same,glycan array binding signal (z-score),[4],-0.452
same,glycan array binding signal (z-score),[5],-0.083
same,glycan array binding signal (z-score),[6],-0.35
same,glycan array binding signal (z-score),[7],-0.001
same,glycan array binding signal (z-score),[8],-0.517
same,glycan array binding signal (z-score),[9],-0.365
same,glycan array binding signal (z-score),[10],-0.494
same,glycan array binding signal (z-score),[11],-0.172
same,glycan array binding signal (z-score),[12],0.16
same,glycan array binding signal (z-score),[13],-0.15
same,glycan array binding signal (z-score),[14],-0.139
same,glycan array binding signal (z-score),Neu5Ac(b2-6)GalNAc,-0.413
same,glycan array binding signal (z-score),[15],4.33
same,glycan array binding signal (z-score),[16],-0.53
same,glycan array binding signal (z-score),[17],-0.071
same,glycan array binding signal (z-score),[18],-0.086
same,glycan array binding signal (z-score),[19],0.113
same,glycan array binding signal (z-score),Neu5Gc(a2-3)Gal(b1-4)Glc,-0.403
same,glycan array binding signal (z-score),[20],0.228
same,glycan array binding signal (z-score),[21],0.016
same,glycan array binding signal (z-score),[22],-0.396
same,glycan array binding signal (z-score),[23],-0.212
same,glycan array binding signal (z-score),Neu5Gc(a2-6)GalNAc,0.543
same,glycan array binding signal (z-score),[24],-0.309
same,glycan array binding signal (z-score),[25],-0.422
same,glycan array binding signal (z-score),[26],0.265
same,glycan array binding signal (z-score),[27],-0.21
same,glycan array binding signal (z-score),[28],-0.376
